Measured values: patent publication US9765075B2, “Substituted bridged urea analogs as sirtuin modulators” (GLAXOSMITHKLINE LLC, priority 2013, dated 2017)
Numbering of substitutions follows the chain as printed. At least one structure is not confirmed: it was looked up by name or label, or the drawing left a doubt.

Columns and labels:
Experiment in all cases: SIRT1 activation dose-response, OAcADPr assay with Ac-p53(W5) substrate
Format in all cases: biochemical
full-length hSIRT1 Q222A = target: T1, full-length hSIRT1 Q222A (Homo sapiens, UniProt Q96EB6, Q222A)
T1 construct: The following point mutants of full-length hSIRT1 were generated; made in house
T1 sequence (Q96EB6 1-747 Q222A): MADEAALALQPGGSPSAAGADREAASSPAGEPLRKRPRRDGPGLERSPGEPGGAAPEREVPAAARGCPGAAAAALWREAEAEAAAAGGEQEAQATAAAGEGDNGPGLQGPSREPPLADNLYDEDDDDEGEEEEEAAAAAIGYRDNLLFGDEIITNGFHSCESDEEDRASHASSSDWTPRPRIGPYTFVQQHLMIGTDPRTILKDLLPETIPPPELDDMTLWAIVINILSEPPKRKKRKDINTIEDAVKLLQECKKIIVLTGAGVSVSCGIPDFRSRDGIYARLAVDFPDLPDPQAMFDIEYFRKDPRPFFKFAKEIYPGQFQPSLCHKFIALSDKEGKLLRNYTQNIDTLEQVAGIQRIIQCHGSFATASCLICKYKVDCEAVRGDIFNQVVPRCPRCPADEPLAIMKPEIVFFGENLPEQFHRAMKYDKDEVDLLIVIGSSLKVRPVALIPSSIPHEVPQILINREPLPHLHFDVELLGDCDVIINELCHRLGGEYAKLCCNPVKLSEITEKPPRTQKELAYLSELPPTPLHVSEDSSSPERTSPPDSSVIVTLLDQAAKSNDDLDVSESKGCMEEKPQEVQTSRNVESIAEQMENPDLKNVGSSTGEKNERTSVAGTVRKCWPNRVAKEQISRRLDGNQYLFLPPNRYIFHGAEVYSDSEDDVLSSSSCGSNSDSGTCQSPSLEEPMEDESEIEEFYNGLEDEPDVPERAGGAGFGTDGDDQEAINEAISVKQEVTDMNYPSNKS

full-length hSIRT1 V224A = target: T2, full-length hSIRT1 V224A (Homo sapiens, UniProt Q96EB6, V224A)
T2 construct: The following point mutants of full-length hSIRT1 were generated; His6 (C); made in house
T2 sequence (Q96EB6 1-747 V224A): T1 sequence (Q96EB6 1-747 Q222A) with A222Q, V224A

full-length hSIRT1 I227A = target: T3, full-length hSIRT1 I227A (Homo sapiens, UniProt Q96EB6, I227A)
T3 construct: The following point mutants of full-length hSIRT1 were generated; His6 (C); made in house
T3 sequence (Q96EB6 1-747 I227A): T1 sequence (Q96EB6 1-747 Q222A) with A222Q, I227A

| Compound | RVmax (maximum activation, relative velocity at infinite activator concentration) (full-length hSIRT1 Q222A) | RVmax (maximum activation, relative velocity at infinite activator concentration) (full-length hSIRT1 V224A) | RVmax (maximum activation, relative velocity at infinite activator concentration) (full-length hSIRT1 I227A) |
| --- | --- | --- | --- |
| O=C(Nc1ccccn1)N1c2nc(-c3cccc(C(F)(F)F)c3)ccc2N2CC[C@H]1C2 [Example 7] | 7.27 | 9.58 | 8.25 |
| Cc1cnc2c(NC(=O)N3c4nc(-c5cccc(C(F)(F)F)c5)ccc4N4CC[C@H]3C4)cccc2n1 [Example 8] | 5.32 | 7.71 | 5.98 |
